Results taken from publication PMC4336329 (PLoS ONE, 2015).
Screen size: about 310,000 compounds; about 2,200 (0.71%) showed an effect of 50% or more. Effects have a minus sign here. The list shows a part of the results.

Target: human ether-à-go-go-related gene (hERG) potassium channel (human, UniProt Q12809)
Assay: primary screen, population patch clamp on CHO cells stably expressing hERG

human ether-à-go-go-related gene (hERG) potassium channel, sequence (Q12809 whole entry, looked up): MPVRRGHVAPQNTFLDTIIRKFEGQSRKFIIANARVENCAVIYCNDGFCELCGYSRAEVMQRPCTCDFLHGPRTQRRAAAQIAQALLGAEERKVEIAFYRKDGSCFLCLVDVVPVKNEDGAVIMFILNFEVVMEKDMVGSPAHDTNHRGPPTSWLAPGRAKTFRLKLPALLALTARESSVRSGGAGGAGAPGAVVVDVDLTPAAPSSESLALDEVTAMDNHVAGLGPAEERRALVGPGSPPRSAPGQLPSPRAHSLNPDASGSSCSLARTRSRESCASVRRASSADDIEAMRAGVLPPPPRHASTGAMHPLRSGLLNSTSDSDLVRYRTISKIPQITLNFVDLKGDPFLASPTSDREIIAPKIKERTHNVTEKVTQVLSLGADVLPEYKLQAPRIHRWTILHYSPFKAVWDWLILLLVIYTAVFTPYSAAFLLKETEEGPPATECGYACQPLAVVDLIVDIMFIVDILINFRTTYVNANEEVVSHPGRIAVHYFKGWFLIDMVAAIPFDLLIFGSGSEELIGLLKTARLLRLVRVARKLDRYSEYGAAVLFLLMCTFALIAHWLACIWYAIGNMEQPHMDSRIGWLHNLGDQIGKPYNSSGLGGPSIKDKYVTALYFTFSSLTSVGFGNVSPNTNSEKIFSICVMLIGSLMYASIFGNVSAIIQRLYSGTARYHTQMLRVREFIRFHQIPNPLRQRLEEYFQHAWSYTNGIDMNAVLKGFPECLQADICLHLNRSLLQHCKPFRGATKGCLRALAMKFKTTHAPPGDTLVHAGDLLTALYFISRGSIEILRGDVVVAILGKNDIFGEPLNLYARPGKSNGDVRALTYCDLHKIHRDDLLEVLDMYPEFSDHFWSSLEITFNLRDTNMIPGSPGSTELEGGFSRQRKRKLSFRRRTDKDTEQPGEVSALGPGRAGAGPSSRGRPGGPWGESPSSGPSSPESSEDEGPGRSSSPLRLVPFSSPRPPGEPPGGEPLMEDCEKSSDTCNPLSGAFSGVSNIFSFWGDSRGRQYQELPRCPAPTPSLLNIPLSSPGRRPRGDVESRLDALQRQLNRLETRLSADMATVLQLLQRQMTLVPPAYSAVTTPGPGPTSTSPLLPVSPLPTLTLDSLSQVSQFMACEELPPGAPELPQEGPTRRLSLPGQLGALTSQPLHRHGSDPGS

| SMILES | hERG current change (%, negative = inhibition) at 1uM |
| --- | --- |
| O=C(CN1CCS(=O)(=O)CC1)N/N=C/c1cccc(C(F)(F)F)c1 | 4.18% |
| CCOC(=O)Cn1c(C)c(Br)c(=O)c2cccc(C)c21 | 12.8% |
| Cc1cc(-c2ccc(S(=O)(=O)N3CCc4ccccc4C3)s2)on1 | 14.4% |
| O=C(CSc1nnc(-c2ccc(C(F)(F)F)cn2)s1)c1ccccc1 | 1.48% |
| CC(C)(CO)Cc1cc(C(C)(C)C)c(O)c(C(C)(C)C)c1 | 6.72% |
| CCOC(=O)N1CCN(CC(O)COC2CC(C)CCC2C(C)C)CC1.Cl (centres unmarked) | -3.48% |
| CCCCNCCOCCOc1ccccc1-c1ccccc1.O=C(O)C(=O)O | -6.89% |
| Cc1ccccc1C=Nc1ccccc1C(N)=O | 3.15% |
| CCc1ccc(C2CC(c3ccccc3)Nc3nc(N)nn32)cc1 (centres unmarked) | 6.4% |
| CNS(=O)(=O)c1cn(CC(=O)N(C)Cc2ccccc2)cc1S(=O)(=O)NC | 0.305% |
| CCOc1ccccc1N(C(=O)Nc1cccc(Cl)c1)C1=NC(C)CS1 (centres unmarked) | 11.4% |
| Cc1cc2[nH]c(=O)c(=O)[nH]c2cc1S(=O)(=O)N1CCN(c2cccc(Cl)c2)CC1 | 13.5% |
| Cn1cc(S(=O)(=O)N2CCCC2)cc1C(=O)Nc1cccc(C(F)(F)F)c1 | 13.3% |
| Cc1ccc(OCc2nnc(SCc3cc(=O)[nH]c4ccccc34)n2-c2ccccc2)cc1 | -3.35% |
| CCCC/C(O)=C1\C(=O)CC(C)(C)CC1=Nc1ccc(OC)cc1 | 14.8% |
| CS(=O)(=O)c1ccc2nc(NC(=O)C3CCCCC3)sc2c1 | 6.47% |
| COCc1cc(C)nc2sc(C(=O)N3CCN(c4ccccc4)CC3)c(N)c12 | 2.51% |
| O=C(/C=C/c1cccs1)NCc1cccs1 | -2.1% |
| COc1ccccc1CNC(=O)C1CCN(S(=O)(=O)c2cccc3nonc23)CC1 | 11.5% |
| O=C(N/N=C\c1cccc(Cl)c1)c1ccc(Cn2cccn2)o1 | -27.5% |
| Cn1c(-c2ccccc2)c(C(=O)CC#N)c2ccccc21 | 13% |
| O=C(O)c1ccc(NCCc2ccc(Cl)cc2)c([N+](=O)[O-])c1 | 1.71% |
| O=[N+]([O-])c1ccc(Sc2nccn2Cc2ccccc2)cc1 | -14.5% |

| SMILES | hERG current change (%, negative = inhibition) at 1uM |
| --- | --- |
| O=C(NCC1CCCO1)c1ccc2c3n(nc2c1)-c1ccccc1CO3 (centres unmarked) | 8.17% |
| O=C(NCCO[N+](=O)[O-])c1cccnc1 | 10.9% |
| CCCOc1ccc(C2C(C(=O)c3ccc(C)o3)=C(O)C(=O)N2Cc2ccco2)cc1 (centres unmarked) | 14% |
| COc1ccc(-c2noc(CCC(=O)NCc3cc(Br)ccc3OC)n2)cc1 | 13.6% |
| Cc1ccc(OCC(=O)N/N=C/C=C/c2ccco2)cc1C | 3.33% |
| CCN1CCN(C(=O)/C(=C/c2ccco2)NC(=O)c2ccccc2)CC1 | -57.1% |
| CC(=O)N1CCc2cc(Br)cc(S(=O)(=O)N3CCc4ccccc43)c21 | -1.76% |
| NC(=S)NC1CCS(=O)(=O)C1 (centres unmarked) | 8.04% |
| Cc1cccc(OCCCCCN2CCOCC2)c1 | 9.94% |
| COc1ccc(N2C(=O)N(Cc3ccc(C)cc3)c3ccccc3S2(=O)=O)cc1 | 9.52% |
| O=C(COC(=O)CCc1c[nH]c2ccccc12)NCCc1ccccc1 | 16.9% |
| CCOC(=O)c1cnc2ccc(OCC)cc2c1NCCCN1CCOCC1.Cl | -30.2% |
| Cc1ccc(N2C(=O)CS/C2=C(\C(Cl)=C(Cl)Cl)[N+](=O)[O-])cc1 | 17.1% |
| COc1ccc(NC(=S)NC(=O)Cc2ccccc2)cc1 | 14.4% |
| Cc1ccccc1CS(=O)(=O)Cc1ccc(C(=O)NCCCN2CC(C)CC(C)C2)o1 (centres unmarked) | -0.544% |
| Cc1nnc(N2CCC(C(=O)N3CCCCC3)CC2)c2nn(-c3ccc(Cl)cc3)c(C)c12 | -39.5% |
| Cc1nn(-c2ccc(Cl)cc2)c(Cl)c1/C=C(\C#N)C(N)=O | 12.4% |
| CCn1cc(C2=NOC(C(=O)Nc3cccc(C(C)=O)c3)C2)c(C)n1 (centres unmarked) | -0.851% |
| CC(C)CCN(C)C1CCN(C(=O)Nc2c(F)cccc2F)CC1 | 11.7% |
| O=C(O)C1CN(C(=O)c2ccccc2)c2cc(Cl)ccc2O1 (centres unmarked) | 15.8% |
| CC(C)(C)NCCCCOc1ccccc1F | 12% |
| CCOc1ccc(C(=O)N2CCCC(c3nc(-c4ccc(C)o4)no3)C2)cc1 (centres unmarked) | -14.4% |
| COC(=O)[C@@]12CCCCN1[C@H](c1ccc(-c3ccc(C(C)=O)cc3)cc1)[C@@H]1C(=O)N(C)C(=O)[C@@H]12.O=C(O)C(F)(F)F | 13.3% |

| SMILES | hERG current change (%, negative = inhibition) at 1uM |
| --- | --- |
| [S-]C(=Nc1ccc(Cl)cc1)N[n+]1ccccc1 | 6.67% |
| O=C(NCCCc1ccccc1)Nc1ccccc1 | 0.504% |
| O=C(c1cc(O)c(O)c([N+](=O)[O-])c1)c1ccccc1F | 7.1% |
| CSCCC(NS(=O)(=O)c1ccc(Cl)cc1)C(=O)OCc1c(Cl)cccc1Cl (centres unmarked) | 10.6% |
| CC1CCCC(NC(=O)C2N(CCCN3CCCC3)C(=O)C3C(C(=O)Nc4cccc(Cl)c4)C4C=CC32O4)C1C (centres unmarked) | 13.7% |
| Cc1cc(C)c2nc(NC(=O)[C@@H](NC(=O)c3cccc(S(=O)(=O)N4CCOCC4)c3)C(C)C)sc2c1 | 10.5% |
| COc1ccc(/C(C)=N/NC(=O)CNC(=O)/C=C\c2ccccc2OC)c(OC)c1 | 10.9% |
| N#CCCN(Cc1cccnc1)C(=S)NC(=O)c1ccc(S(=O)(=O)N2CCCC2)cc1 | 12.1% |
| CC(C)CN(c1ccccc1)S(=O)(=O)c1nnc(NC(=O)c2ccco2)s1 | 10.4% |
| O=C(Nc1sc2c(c1C(=O)O)CCCC2)c1ccc(Cl)cc1 | 15.8% |
| Cc1ccc(S(=O)(=O)N(C)C)cc1NC(=O)C(C)NC(C)c1cccs1 (centres unmarked) | 4.7% |
| COc1cccc(C(=O)Nc2cc3c(cc2Cl)OCCCO3)c1 | 9.18% |
| COCc1c(C(=O)OCC(=O)N(C)C2CCS(=O)(=O)C2)oc2ccccc12 (centres unmarked) | 8.43% |
| CN(C)c1ccc(NC(=S)c2ccc3ccccc3n2)cc1 | 6.42% |
| C/C(=N\NC(=S)Nc1ccc(F)cc1)C1CC1 | -8.71% |
| Cc1ccc(C(=O)N2CC(=O)Nc3ccc(F)cc3C2c2ccccc2)cc1[N+](=O)[O-] (centres unmarked) | 4.83% |
| CCC(C)Nc1nc(-c2ccc3c(c2)NC(=O)CO3)cs1 (centres unmarked) | 17.5% |
| COc1cc2ccccc2cc1C(=O)Nc1ccc(NC(=O)c2cccs2)cc1 | 16.6% |
| Nc1c(C(=O)Nc2ccc(S(=O)(=O)N3CCCC3)cc2)sc2nc3cc4c(cc3cc12)CCC4 | 0.301% |
| COC(=O)COc1ccc(S(=O)(=O)Nc2ccc(C(N)=O)cc2)cc1 | 13.4% |
| CC(=O)c1cnn(-c2cc(Oc3ccccc3C)ncn2)c1C | 4.71% |
| O=C(CN1CCN(CC(=O)Nc2ccc(OCc3ccccc3)cc2)CC1)Nc1ccc(F)cc1 | -81.5% |
| CN(Cc1ccccc1)C(=S)Nc1ccc(OC(F)F)cc1 | 11.1% |

| SMILES | hERG current change (%, negative = inhibition) at 1uM |
| --- | --- |
| O=C(COc1ccc(Cl)cc1Cl)NNC(=S)Nc1ccc(F)cc1 | -2.84% |
| Cc1c(N(C(=O)c2cc(=O)[nH]c3ccccc23)C(C)C)c(=O)n(-c2ccccc2)n1C | -2.42% |
| O=C(CN1CCN(S(=O)(=O)c2ccc(F)cc2)CC1)Nc1ccc(Cl)cn1 | -31% |
| Nc1cc(S(=O)(=O)Nc2cc(Cl)ccc2Cl)ccc1N1CCOCC1 | 8.29% |
| COc1ccc(C(=O)NCC(C)(C)SCc2c(C)cc(C)cc2C)cc1 | 15.5% |
| CCOc1ccc(-c2cccc(NC(=O)c3ccc(Br)o3)c2)nn1 | 16.1% |
| COc1ccc2ccccc2c1/C=N/Nc1cccc(C(=O)O)c1 | 9.85% |
| COc1ccc(/C(=N\O)c2ncc(C(F)(F)F)cc2Cl)cc1 | -4.22% |
| CCCCCC(=O)Nc1ccc(N2CCN(C(=O)CCC)CC2)cc1 | -2.55% |
| COC1=CC(=O)OC12CCCCC2 | 12.2% |
| COc1cc(C(=O)OC2CCOC2=O)cc(Cl)c1OC (centres unmarked) | 15.3% |
| O=S(=O)(NCc1ccccc1)c1ccc(Br)s1 | 6.16% |
| O=C(Nc1cc(-c2ccccc2)[nH]n1)c1ccccc1 | 16.5% |
| CCCCCOC(=O)Nc1nnc(CCCCC)s1 | -9.34% |
| CCOC(=O)C1(CCCc2ccccc2)CCN(C(=O)[C@@H]2C[C@@H](C)NC(=S)N2)CC1 | 1.17% |
| CSC(=NCc1ccco1)NC#N | 0.417% |
| Cc1ccnc(NS(=O)(=O)c2ccc(NS(=O)(=O)Cc3ccccc3)cc2)n1 | 5.77% |
| COc1ccc(CSc2nnnn2-c2ccccc2)cc1 | 14.1% |
| COc1cc(C)c(S(=O)(=O)N2CCN(C)CC2)cc1C | 6.55% |
| O=C(O)c1ccc(-n2cccc2/C=C2/NC(=O)N(c3ccccc3)C2=O)cc1 | 5.53% |
